Data published in PubChem BioAssay AID463173 (ICCB-Longwood Screening Facility, Harvard Medical School, 2010).
In all, about 52,000 compounds went through this assay and about 4,300 (8.3%) were called active. No stated cut-off is given here; in the data, active means survival mostly below about 52% (no sharp cut-off); inactive means mostly above about 56%. This is one part of the list.

test system: DeltatarO mutant; experiment: growth inhibition of S. aureus wild type versus tarO mutant, primary screen, teichoic acid synthesis inhibitors, RN4220, OD600 (AID 463173); details: OD600, 18 h, hits give low values, screened at 18.75 µg/mL (by protocol)

SMILES	survival
CCc1ccc(C2C(C#N)=C(N)Oc3cc(N)ccc32)cc1 (stereo not drawn)	inactive: 102%
CCOc1ccc(C(=O)N(C)CC2COc3ccccc3O2)cc1 (stereo not drawn)	inactive: 90%
COc1cccc(NC(=O)CN2C(=O)c3ccccc3Sc3ncccc32)c1	inactive: 95%
Cc1ccc(-n2nc(C)c3c(C(F)(F)F)cc(-c4cccnc4)nc32)cc1Cl	inactive: 53%
COc1ccccc1C(=O)Nc1c(C(=O)NC(C)(C)C)oc2ccccc12	inactive: 99%
CCc1ccc(Nc2nc3ccccc3nc2NS(=O)(=O)c2ccccc2)cc1	active: 28%
Cc1cccc(-n2c(=O)c3ccccc3n(Cc3ccc(F)cc3)c2=O)c1	inactive: 77%
COc1ccc(NC(=O)C2=C(C)Nc3nc(SCc4ccc(Cl)cc4)nn3C2c2cccc(OC)c2OC)cc1 (stereo not drawn)	inactive: 67%
O=C(Cn1c(=O)nc(-c2ccccc2)c2ccccc21)Nc1ccc(Cl)cc1F	inactive: 73%
CCCCOC(=O)c1ccc(NC(=O)c2sc3nc(C)cc(C)c3c2N)cc1	inactive: 65%
COc1ccc(N(C)C(=O)Cn2cc(S(=O)(=O)N3CCN(c4ccccc4F)CC3)c3ccccc3c2=O)c(OC)c1	inactive: 97%
CC1CCN(c2ccc(-c3cccc(NS(=O)(=O)c4ccc(F)cc4F)c3)nn2)CC1	inactive: 102%
CC1CCN(C(=O)CSc2nc(-c3ccc(F)cc3)cc(C(F)(F)F)n2)CC1	active: 37%
CCOC(=O)c1sc(NC(=O)c2c(-c3ccccc3)c(-c3ccccc3)nn(C)c2=O)nc1C	inactive: 48%
Cn1c(=O)c(C(=O)NC2CCCCCC2)c(O)c2ccccc21	inactive: 65%
Cc1nc2cccnc2n1C1CCN(C(=O)Nc2ccc(Cl)cc2)CC1	inactive: 81%
COC(=O)Cc1c(C)c2ccc3c(c2oc1=O)CN(Cc1ccccc1Cl)CO3	inactive: 84%
CCOc1ccc(-c2c(C)nn3c(C)c(C(=O)NCCc4ccc(C)cc4)cnc23)cc1OCC	inactive: 77%
CCc1c(C)sc2c1CCN(Cc1ccccc1F)C2c1ccccc1 (stereo not drawn)	inactive: 102%
O=C(NCCSc1c[nH]c2ccccc12)c1ccccc1Cl	inactive: 57%

SMILES	survival
COc1ccc(NC(=O)C2CCN(S(=O)(=O)c3c(C)noc3/C=C/c3cccs3)CC2)cc1Cl	inactive: 80%
c1ccc(-c2cc3n(c2)CCc2ccccc2-3)cc1	inactive: 76%
O=S(=O)(NC1CCCCC1)c1ccc(S(=O)(=O)N2CCN3CCCC3C2)cc1 (stereo not drawn)	inactive: 92%
COc1cccc(Cn2cc(C(=O)c3ccc(Cl)cc3)c(=O)c3ccccc32)c1	inactive: 96%
N#C/C(=C\c1ccc(-c2ccc(Br)cc2)o1)C(=O)OC1CCCCC1	inactive: 104%
CCSc1ncc(Cl)c(C(=O)Nc2cccc(Cl)c2)n1	inactive: 59%
COC(=O)c1ccc(CSC(=N)N)o1	inactive: 69%
CCSc1nnc(CNc2ccc(F)cc2)n1-c1ccc(C)cc1	inactive: 87%
COCCNC(=O)c1ccccc1NC(=O)c1nsc2ccccc12	inactive: 77%
CNC(=O)CN1C(=O)COc2ccc(S(=O)(=O)N3CCC(C)CC3)cc21	inactive: 86%
CCc1cc2c(cc3c(=O)n(CC(=O)NCCc4ccc(OC)cc4OC)nc(CC)n32)s1	inactive: 83%
COc1ccc2[nH]cc(CCN=C(NC(=O)c3ccccc3OC)Nc3nc(C)cc(C)n3)c2c1	inactive: 70%
COC(=O)Cn1c(SCCOc2ccccc2OC)nc2ccccc21	inactive: 51%
Cc1cc2[nH]c(=O)c(=O)[nH]c2cc1S(=O)(=O)N1CCN(c2cccc(Cl)c2)CC1	inactive: 76%
CC(C)CCOc1ccc(C(=O)NCC2OCCc3ccccc32)cc1 (stereo not drawn)	active: 39%
COc1ccc(-c2noc(CCC(=O)N(C)c3cc(Cl)ccc3OC)n2)cc1	active: 26%
COc1cccc(-n2c(=O)c3cc(OC)c(OC)cc3n(CC(=O)Nc3ccc(F)cc3)c2=O)c1	inactive: 73%
COc1ccc(-n2c(SCC(=O)NCc3ccc(Cl)cc3)nc3ccsc3c2=O)cc1	inactive: 68%
Cc1ccc(NC(=O)CCCc2nc(-c3ccco3)no2)cc1Cl	inactive: 80%
COc1ccc(-n2nnnc2C2CCN(S(=O)(=O)c3cccc(C(F)(F)F)c3)CC2)cc1	inactive: 83%

SMILES	survival
COc1cccc(NC(=O)C(Cc2ccccc2)N2Cc3ccccc3C2=O)c1 (stereo not drawn)	inactive: 66%
Cc1cc2c(cc1NS(=O)(=O)c1ccc(Br)cc1)n(C)c(=O)c(=O)n2C	inactive: 109%
COc1cccc(Cn2nc(SC)c(S(=O)(=O)c3ccccc3)c2N(C(C)=O)C(C)=O)c1	inactive: 72%
CCCSCCCNC(=O)c1ccc(C)c(NC(=O)c2nsc3ccccc23)c1	inactive: 101%
COc1cc(NC(=O)c2cccc(Cl)c2Cl)ccc1NC(=O)c1cc2ccccc2o1	inactive: 64%
CCS(=O)(=O)N1CCCc2cc(C(=O)Nc3cccc(C(C)=O)c3)ccc21	inactive: 89%
CCCn1c2ccc(F)cc2c2nnc(SCCN3CCCCC3)nc21	inactive: 187%
CCC(=O)N1CCc2cc(Br)cc(S(=O)(=O)CCC(=O)Nc3cccc(Cl)c3)c21	inactive: 81%
CCCc1cnc2c(c1SCC(=O)Nc1ccccc1OCC)c(=O)n(C)c(=O)n2C	inactive: 72%
Clc1ccc(-c2nnn3c2nc(NC2CCCCC2)c2ccccc23)cc1	active: 17%
CCOc1ccc(Nc2ncnc3c2c(-c2ccccc2)cn3-c2cccc(C)c2)cc1	inactive: 115%
O=S(=O)(N1CCCCC1)N1CCNCC1	inactive: 95%
CCOc1ccc(C(=O)N(Cc2ccc(C(C)C)cc2)Cc2ccco2)cc1	inactive: 68%
CCOc1ccc(NCc2cccn2-c2nnc(N3CCC(C(=O)NCc4ccccc4Cl)CC3)s2)cc1	inactive: 84%
O=C(c1ccc(F)cc1)N1CCc2c([nH]c3ccccc23)C1c1ccc(Cl)cc1 (stereo not drawn)	inactive: 55%
CCc1ccc(OCCSc2nc3ccccc3n2CC(=O)N2CCCCC2)cc1	active: 40%
COc1ccc(Cl)cc1NC(=O)N1CCN(S(=O)(=O)c2ccc3c(ccn3C)c2)CC1	inactive: 92%
CC(C)(C)OC(=O)N1CCC(c2c(C(=O)NCc3cccs3)cnn2-c2cccc(F)c2)CC1	active: -5%
